# Source: the supplement of paper PMC8728848
# This is one part of the list.
# Tests used:
# Assay in all cases: glycan array binding signal (z-score within array); higher = stronger binding
# Conditions in all cases: glycan notation: IUPAC condensed, linker removed
# [1] = biological target: Gal(b1-3)GlcNAc(b1-3)Gal(b1-4)GlcNAc(b1-2)[Gal(b1-3)GlcNAc(b1-3)Gal(b1-4)GlcNAc(b1-6)]Man(a1-6)[Gal(b1-3)GlcNAc(b1-3)Gal(b1-4)GlcNAc(b1-2)Man(a1-3)]Man(b1-4)GlcNAc(b1-4)[Fuc(a1-6)]GlcNAc
# Method in brief: (§1)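 The binding signal is a Z-score computed within each array. Data were drawn from 3228 arrays in the Consortium for Functional Glycomics database, restricted to those with a known protein sequence. Scores were averaged over arrays of the same protein sequence at different concentrations or buffers, and over linkers, and negative values can be taken as non-binding.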
# [2] = biological target: Gal(b1-3)GlcNAc(b1-3)Gal(b1-4)GlcNAc(b1-3)Gal(b1-4)GlcNAc(b1-2)[Gal(b1-3)GlcNAc(b1-3)Gal(b1-4)GlcNAc(b1-3)Gal(b1-4)GlcNAc(b1-6)]Man(a1-6)[Gal(b1-3)GlcNAc(b1-3)Gal(b1-4)GlcNAc(b1-3)Gal(b1-4)GlcNAc(b1-2)Man(a1-3)]Man(b1-4)GlcNAc(b1-4)[Fuc(a1-6)]GlcNAc
# Method in brief: as §1
# [3] = biological target: Gal(b1-3)GlcNAc(b1-3)Gal(b1-4)GlcNAc(b1-6)[Gal(b1-3)GlcNAc(b1-3)]Gal(b1-4)Glc
# Method in brief: as §1
# [4] = biological target: Gal(b1-3)GlcNAc(b1-3)Gal(b1-4)[Fuc(a1-3)]GlcNAc
# Method in brief: as §1
# [5] = biological target: Gal(b1-3)GlcNAc(b1-3)Gal(b1-4)[Fuc(a1-3)]GlcNAc(b1-6)[Gal(b1-3)GlcNAc(b1-3)]Gal(b1-4)Glc
# Method in brief: as §1
# [6] = biological target: Gal(b1-3)GlcNAc(b1-3)GalNAc
# Method in brief: as §1
# [7] = biological target: Gal(b1-3)GlcNAc(b1-6)Gal(b1-4)GlcNAc
# Method in brief: as §1
# [8] = biological target: Gal(b1-3)GlcNAc(b1-6)GalNAc
# Method in brief: as §1
# [9] = biological target: Gal(b1-3)GlcNAc(b1-6)[Gal(b1-3)]GalNAc
# Method in brief: as §1
# [10] = biological target: Gal(b1-3)GlcNAc6S
# Method in brief: as §1
# [11] = biological target: Gal(b1-3)[Fuc(a1-4)]GlcNAc
# Method in brief: as §1
# [12] = biological target: Gal(b1-3)[Fuc(a1-4)]GlcNAc(b1-2)Man
# Method in brief: as §1
# [13] = biological target: Gal(b1-3)[Fuc(a1-4)]GlcNAc(b1-2)Man(a1-3)[Gal(b1-3)[Fuc(a1-4)]GlcNAc(b1-2)Man(a1-6)]Man(b1-4)GlcNAc(b1-4)[Fuc(a1-6)]GlcNAc
# Method in brief: as §1
# [14] = biological target: Gal(b1-3)[Fuc(a1-4)]GlcNAc(b1-3)Gal(b1-3)[Fuc(a1-4)]GlcNAc
# Method in brief: as §1
# [15] = biological target: Gal(b1-3)[Fuc(a1-4)]GlcNAc(b1-3)Gal(b1-4)[Fuc(a1-3)]GlcNAc
# Method in brief: as §1
# [16] = biological target: Gal(b1-3)[Fuc(a1-4)]GlcNAc(b1-6)GalNAc
# Method in brief: as §1
# [17] = biological target: Gal(b1-3)[GlcNAc(b1-6)]GalNAc
# Method in brief: as §1
# [18] = biological target: Gal(b1-3)[Neu5Ac(a2-6)]GalNAc
# Method in brief: as §1
# [19] = biological target: Gal(b1-3)[Neu5Ac(a2-6)]GlcNAc(b1-4)Gal(b1-4)Glc
# Method in brief: as §1
# [20] = biological target: Gal(b1-3)[Neu5Ac(b2-6)]GalNAc
# Method in brief: as §1
# [21] = biological target: Gal(b1-4)Gal
# Method in brief: as §1
# [22] = biological target: Gal(b1-4)GalNAc(a1-3)[Fuc(a1-2)]Gal(b1-4)GlcNAc
# Method in brief: as §1
# [23] = biological target: Gal(b1-4)GalNAc(b1-3)[Fuc(a1-2)]Gal(b1-4)GlcNAc
# Method in brief: as §1
# [24] = biological target: Gal(b1-4)Glc
# Method in brief: as §1
# [25] = biological target: Gal(b1-4)Glc6S
# Method in brief: as §1
# [26] = biological target: Gal(b1-4)GlcNAc
# Method in brief: as §1
# [27] = biological target: Gal(b1-4)GlcNAc(a1-6)Gal(b1-4)GlcNAc
# Method in brief: as §1
# [28] = biological target: Gal(b1-4)GlcNAc(b1-2)Man
# Method in brief: as §1
# [29] = biological target: Gal(b1-4)GlcNAc(b1-2)Man(a1-3)Man(b1-4)GlcNAc(b1-4)GlcNAc
# Method in brief: as §1
# [30] = biological target: Gal(b1-4)GlcNAc(b1-2)Man(a1-3)[Gal(b1-4)GlcNAc(b1-2)Man(a1-6)]Man(b1-4)GlcNAc(b1-4)GlcNAc
# Method in brief: as §1
# [31] = biological target: Gal(b1-4)GlcNAc(b1-2)Man(a1-3)[Gal(b1-4)GlcNAc(b1-2)Man(a1-6)]Man(b1-4)GlcNAc(b1-4)[Fuc(a1-6)]GlcNAc
# Method in brief: as §1
# [32] = biological target: Gal(b1-4)GlcNAc(b1-2)Man(a1-3)[Gal(b1-4)GlcNAc(b1-2)Man(a1-6)][Gal(b1-4)GlcNAc(b1-4)]Man(b1-4)GlcNAc(b1-4)[Fuc(a1-6)]GlcNAc
# Method in brief: as §1
# [33] = biological target: Gal(b1-4)GlcNAc(b1-2)Man(a1-3)[Gal(b1-4)GlcNAc(b1-2)Man(a1-6)][GlcNAc(b1-4)]Man(b1-4)GlcNAc(b1-4)[Fuc(a1-6)]GlcNAc
# Method in brief: as §1
# [34] = biological target: Gal(b1-4)GlcNAc(b1-2)Man(a1-3)[GlcNAc(b1-2)Man(a1-6)]Man(b1-4)GlcNAc(b1-4)GlcNAc
# Method in brief: as §1
# [35] = biological target: Gal(b1-4)GlcNAc(b1-2)Man(a1-3)[GlcNAc(b1-4)][Gal(b1-4)GlcNAc(b1-2)Man(a1-6)]Man(b1-4)GlcNAc(b1-4)GlcNAc
# Method in brief: as §1
# [36] = biological target: Gal(b1-4)GlcNAc(b1-2)Man(a1-3)[Man(a1-6)]Man(b1-4)GlcNAc(b1-4)GlcNAc
# Method in brief: as §1
# [37] = biological target: Gal(b1-4)GlcNAc(b1-2)Man(a1-6)Man(b1-4)GlcNAc(b1-4)GlcNAc
# Method in brief: as §1
# [38] = biological target: Gal(b1-4)GlcNAc(b1-2)Man(a1-6)[GlcNAc(b1-2)Man(a1-3)]Man(b1-4)GlcNAc(b1-4)GlcNAc
# Method in brief: as §1
binder,measurement,setting,value
PX15618B-bfa-464-25-464 (Bacteroides fragilis) (protein) DQEPPLYVNENDIFTSPTRIEATLNGLYAAIKNTGTKSLMGGKSYLVFDNRGDDVINISNNLVTLFNTYNMNVGITDAENADTWTYAYLAINKVNTFLQSLEGAREVAGENYDRYVQEAKFVRALAYYYLNNLYPTPYSVNPDAKSVPLRLTAEAGTENNNMPRSTVKQIYEHILSDLENISALDTEVNTYTGVTHATQAAANMLKMRVYMAMNEWDKAITAGELVTGYSLPEDVTLIYKAPYFSQESIFSLPMADTNIPNTQQSLAEYYYDGKIMLIDTKSGIMSKPDYSLATDKRIIAFKGEKDLLMKFTDAKTKLQWVPIFRYAETLLDLAECYANKAGGEATAKSLLKQVRGRSVDAATDPLNIDNLSGDALKEAIYNEKRLEFIGEGIRGIDIMRRGEHFIKVGENETINVGPSDEKYTWPIPQVELLLNKDINK,glycan array binding signal (z-score),[1],0.521
same,glycan array binding signal (z-score),[2],1.04
same,glycan array binding signal (z-score),[3],-0.005
same,glycan array binding signal (z-score),[4],-0.274
same,glycan array binding signal (z-score),[5],0.349
same,glycan array binding signal (z-score),[6],-0.304
same,glycan array binding signal (z-score),[7],-0.205
same,glycan array binding signal (z-score),[8],0.639
same,glycan array binding signal (z-score),[9],0.483
same,glycan array binding signal (z-score),[10],-0.229
same,glycan array binding signal (z-score),[11],-0.032
same,glycan array binding signal (z-score),[12],-0.546
same,glycan array binding signal (z-score),[13],0.153
same,glycan array binding signal (z-score),[14],-0.72
same,glycan array binding signal (z-score),[15],-0.681
same,glycan array binding signal (z-score),[16],-0.13
same,glycan array binding signal (z-score),[17],-0.464
same,glycan array binding signal (z-score),[18],-0.249
same,glycan array binding signal (z-score),[19],0.221
same,glycan array binding signal (z-score),[20],-0.017
same,glycan array binding signal (z-score),[21],-0.207
same,glycan array binding signal (z-score),[22],0.272
same,glycan array binding signal (z-score),[23],-0.753
same,glycan array binding signal (z-score),[24],-0.462
same,glycan array binding signal (z-score),[25],0.136
same,glycan array binding signal (z-score),[26],-0.484
same,glycan array binding signal (z-score),[27],-0.333
same,glycan array binding signal (z-score),[28],-0.15
same,glycan array binding signal (z-score),[29],-0.16
same,glycan array binding signal (z-score),[30],-0.653
same,glycan array binding signal (z-score),[31],1.02
same,glycan array binding signal (z-score),[32],0.184
same,glycan array binding signal (z-score),[33],0.173
same,glycan array binding signal (z-score),[34],-0.294
same,glycan array binding signal (z-score),[35],-0.115
same,glycan array binding signal (z-score),[36],-0.774
same,glycan array binding signal (z-score),[37],-0.444
same,glycan array binding signal (z-score),[38],-0.423
